Whole data set: some 110,000 compounds, median “z-score” near -0.1, cut for the highest 2% near 2. Some of the results follow.
Target: Metabotropic glutamate receptor 8 (Rattus norvegicus) (UniProt P70579)
Experiment: rat mGluR8 modulators via GIRK flux, primary screen, cell-based, thallium flux, HTS (AID 488969)
Conditions: HEK293 rat mGluR8, GIRK (G protein-gated inwardly rectifying potassium channel) thallium flux, FluoZin2; at 10 µM; stronger effect = higher value; submaximal glutamate (EC20) added with thallium

UniProt P70579, sequence (P70579 whole entry, looked up): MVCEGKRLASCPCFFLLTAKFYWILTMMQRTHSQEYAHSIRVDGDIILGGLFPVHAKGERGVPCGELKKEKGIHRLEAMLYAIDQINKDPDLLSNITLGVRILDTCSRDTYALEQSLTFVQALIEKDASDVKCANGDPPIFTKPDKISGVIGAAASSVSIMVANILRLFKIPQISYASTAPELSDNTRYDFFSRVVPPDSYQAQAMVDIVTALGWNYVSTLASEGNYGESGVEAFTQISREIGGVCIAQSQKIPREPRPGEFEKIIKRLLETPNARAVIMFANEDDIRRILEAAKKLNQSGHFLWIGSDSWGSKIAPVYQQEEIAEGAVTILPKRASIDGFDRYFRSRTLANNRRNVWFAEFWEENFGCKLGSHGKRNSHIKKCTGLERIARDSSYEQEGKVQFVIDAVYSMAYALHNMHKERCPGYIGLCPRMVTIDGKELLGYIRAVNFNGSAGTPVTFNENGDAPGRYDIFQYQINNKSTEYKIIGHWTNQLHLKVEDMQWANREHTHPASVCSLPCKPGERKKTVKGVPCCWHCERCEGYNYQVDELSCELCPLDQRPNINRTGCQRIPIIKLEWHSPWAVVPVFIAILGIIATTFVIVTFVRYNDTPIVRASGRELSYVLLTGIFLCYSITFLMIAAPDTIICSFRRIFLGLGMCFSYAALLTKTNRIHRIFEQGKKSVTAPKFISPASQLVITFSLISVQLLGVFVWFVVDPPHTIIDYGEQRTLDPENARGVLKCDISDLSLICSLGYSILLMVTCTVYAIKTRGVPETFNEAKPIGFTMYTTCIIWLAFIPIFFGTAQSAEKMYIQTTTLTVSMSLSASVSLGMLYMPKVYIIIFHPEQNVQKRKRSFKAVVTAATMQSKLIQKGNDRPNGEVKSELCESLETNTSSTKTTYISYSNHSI

SMILES | z-score
O=C(CS(=O)c1cccc(Cl)c1)Nc1ccccc1Cl (centres undefined) | 0.0755
CCCCC(=O)NCc1ccc(Cl)cc1 | -0.0907
COc1ccc(C(=O)N2CC3(C)CC2CC(C)(C)C3)cc1 (centres undefined) | 0.00843
CCCOc1c(Cl)cc(/C=N/O)cc1OCC | -0.48
Cc1nc2cc3ccccc3cc2c(=O)[nH]1 | -0.408
Cc1ccc(-n2nc3cc(C)c(NC(=O)c4cccnc4)cc3n2)cc1 | -0.169
COc1ccc2c(c1)c(=O)oc1cc(OCC(=O)NC3CCCCC3)ccc12 | 0.0339
CCCS(=O)(=O)C(=C(Nc1ccc(OC)cc1)Nc1ccc(OC)cc1)S(=O)(=O)CCC | -2.94
CCn1nc(C(=O)N2CCN(Cc3ccc4c(c3)OCO4)CC2)c2ccccc2c1=O | -0.474
COC(=O)c1ccc(NC(=O)CN(c2ccc(OC)cc2)S(C)(=O)=O)cc1 | 0.267
O=C(c1ccc2c(c1)OCO2)n1nnc2ccccc21 | -0.248
CCc1nnc(NC(=O)CSc2nnc(-c3ccccc3O)n2CC)s1 | -0.195
C=CCc1cc(OC)ccc1OCCON1C(=O)CCC1=O | 0.46
O=C(Cc1ccccc1)NNC1CC(=O)N(c2ccc(Br)cc2)C1=O (centres undefined) | -0.285
COc1cccc2c3c(c(=O)[nH]c12)CCC(C)(C)O3 | -0.72
CC(C)c1ccc(-c2nc(N3CCOCC3)[nH]c(=O)c2C#N)cc1 | -1.29
N/C(Cc1cccs1)=N\OC(=O)COc1ccc(Br)cc1 | -1.16
O=C(CCCN1C(=O)/C(=C\c2ccco2)SC1=S)Nc1ccc2ccccc2c1 | -0.0955
COc1ccc(-n2nnnc2SCC(=O)c2ccc(OC)c(OC)c2)cc1 | -0.221
O=C(O)CC(NC(=O)C(c1ccccc1)c1ccccc1)c1ccco1 (centres undefined) | -0.325
COc1nc(N2CCOCC2)nc(C)c1[N+](=O)[O-] | -0.535
COc1ccc(-c2nnn(CC(=O)N(Cc3ccco3)C(C(=O)NCC3CCCO3)c3ccco3)n2)cc1 (centres undefined) | 0.609
O=C(Cn1c(=O)n(Cc2ccco2)c(=O)c2ccccc21)NCC1CCCO1 (centres undefined) | -0.425
COCCn1c(=N)c(C(=O)NCCc2ccccc2)cc2c(=O)n3cccc(C)c3nc21 | 0.228
COc1cccc(CN2C(=O)N(C(C)C)C(N(O)C(=O)NC(C)C)C2(C)C)c1OC (centres undefined) | 0.122
Cc1ccc(NP(=O)(c2ccc(N(C)C)cc2NC(=O)c2cccs2)N2CCOCC2)cc1 (centres undefined) | 0.911
CCCOC(=O)CC1C(=O)NCCN1Cc1ccccc1C (centres undefined) | -0.484

SMILES | z-score
O=C(Nc1nc(-c2ccncc2)cs1)C1COc2ccccc2O1 (centres undefined) | -0.377
CCOC(=O)CSc1nnc(CNC(=O)c2ccccc2OC)n1-c1ccc(OC)cc1 | -0.559
CCCC(NC(=O)c1ccccc1)c1nc2ccccc2n1Cc1ccc(C(=O)OC)o1 (centres undefined) | 0.0213
CCN1CCN(C(=O)CN(C)S(=O)(=O)c2ccc(OC)c(C)c2)CC1 | 0.273
COc1ccc(NC(C)=O)cc1NC(=O)CCn1c(=O)sc2ccccc21 | 0.00383
CNC(=S)N1N=C(c2ccccc2)CC1c1ccc(Br)cc1 (centres undefined) | -0.103
CC(C)OC(=O)CC(=O)CSc1nc2c(cc1C#N)CCCCCC2 | -0.0424
O=C(NCC1CCCO1)C1CCC(=O)N1Cc1ccccc1Cl (centres undefined) | -0.388
O=C(COC(=O)/C=C/c1ccccc1[N+](=O)[O-])Nc1ccc(OCc2ccccc2)cc1 | -0.237
Cc1onc(-c2c(Cl)cccc2Cl)c1C(=O)N1CCc2ccccc21 | -0.434
COc1ccc(-c2cc3ccc(OCc4nn[nH]n4)cc3oc2=O)cc1OC | 0.457
CCOC(=O)c1nc(C)n(-c2cc(Cl)ccc2Cl)n1 | -0.12
CCCNS(=O)(=O)c1ccc(OCC(=O)NCCC2=CCCCC2)cc1 | -0.106
O=C(CN1CCN(c2ccccn2)CC1)N1CCc2ccccc21 | -0.219
O=S(=O)(NCCc1csc(-c2cccnc2)n1)c1ccc(Cl)s1 | 2.22
CCc1ccc(N(CC(=O)Nc2nc3ccc(C)cc3s2)S(=O)(=O)c2c(C)noc2C)cc1 | -0.0777
O=C(CN1C(=O)C2C3C=CC(C3)C2C1=O)N1CC(=O)N(CCc2ccccc2)C(=O)C1 (centres undefined) | 0.00863
O=C(N/N=C/c1ccc[nH]1)c1ccc([N+](=O)[O-])cc1 | -0.175
O=C1C=C(Nc2ccc(Cl)cc2)CC(c2ccc(Cl)cc2)C1 (centres undefined) | -0.0986
O=C(Nc1ccccc1C(=O)NCc1ccco1)c1ccco1 | -0.945
CCCC(=O)Nc1ccc(Cl)c(NC(=S)NC(=O)c2ccco2)c1 | 0.122
Cc1cc(C)n(-c2ccc(C(=O)OCC(=O)N(CC(C)C)C3CCS(=O)(=O)C3)cc2)n1 (centres undefined) | -0.486
Cc1ccc(/C=N/N2CCN(C3c4ccccc4-c4ccccc43)CC2)s1 | -0.266
CCOc1ccc2nc(SCC(=O)c3ccc(Cl)s3)sc2c1 | 1.12
Cc1ccc(N(CC(=O)NN=C2CCN(C)CC2)S(=O)(=O)c2ccccc2)c(C)c1 | -0.218
CCOC(=O)Cn1c(=N)n(CCOc2ccc(OC)cc2)c2ccccc21 | 2.74
Cn1c(=O)[nH]c(=O)c2c1nc(Br)n2CCSc1nnnn1-c1ccccc1 | -0.161

Reference: PubChem BioAssay AID488969 (Vanderbilt High Throughput Screening Facility, 2010)
